{"source": "the supplement of paper PMC8728848", "assay_in_all_cases": "glycan array binding signal (z-score within array); higher = stronger binding", "details_in_all_cases": "glycan notation: IUPAC condensed, linker removed", "key": {"[1]": {"target": "Gal(b1-4)GalNAc(b1-3)[Fuc(a1-2)]Gal(b1-4)GlcNAc", "summary_of_the_method": "(§1)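 Columns mapping to the same glycan were averaged after glycan names were converted to IUPAC-condensed notation. The data come from 3228 arrays in the Consortium for Functional Glycomics database, limited to those with an available protein sequence. Binding is reported as a within-array Z-score averaged across arrays of one protein sequence and across linkers.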"}, "Gal(b1-4)Glc": {"target": "Gal(b1-4)Glc", "summary_of_the_method": "as §1"}, "Gal(b1-4)Glc6S": {"target": "Gal(b1-4)Glc6S", "summary_of_the_method": "as §1"}, "Gal(b1-4)GlcNAc": {"target": "Gal(b1-4)GlcNAc", "summary_of_the_method": "as §1"}, "[2]": {"target": "Gal(b1-4)GlcNAc(a1-6)Gal(b1-4)GlcNAc", "summary_of_the_method": "as §1"}, "Gal(b1-4)GlcNAc(b1-2)Man": {"target": "Gal(b1-4)GlcNAc(b1-2)Man", "summary_of_the_method": "as §1"}, "[3]": {"target": "Gal(b1-4)GlcNAc(b1-2)Man(a1-3)Man(b1-4)GlcNAc(b1-4)GlcNAc", "summary_of_the_method": "as §1"}, "[4]": {"target": "Gal(b1-4)GlcNAc(b1-2)Man(a1-3)[Gal(b1-4)GlcNAc(b1-2)Man(a1-6)]Man(b1-4)GlcNAc(b1-4)GlcNAc", "summary_of_the_method": "as §1"}, "[5]": {"target": "Gal(b1-4)GlcNAc(b1-2)Man(a1-3)[Gal(b1-4)GlcNAc(b1-2)Man(a1-6)]Man(b1-4)GlcNAc(b1-4)[Fuc(a1-6)]GlcNAc", "summary_of_the_method": "as §1"}, "[6]": {"target": "Gal(b1-4)GlcNAc(b1-2)Man(a1-3)[Gal(b1-4)GlcNAc(b1-2)Man(a1-6)][Gal(b1-4)GlcNAc(b1-4)]Man(b1-4)GlcNAc(b1-4)[Fuc(a1-6)]GlcNAc", "summary_of_the_method": "as §1"}, "[7]": {"target": "Gal(b1-4)GlcNAc(b1-2)Man(a1-3)[Gal(b1-4)GlcNAc(b1-2)Man(a1-6)][GlcNAc(b1-4)]Man(b1-4)GlcNAc(b1-4)[Fuc(a1-6)]GlcNAc", "summary_of_the_method": "as §1"}, "[8]": {"target": "Gal(b1-4)GlcNAc(b1-2)Man(a1-3)[GlcNAc(b1-2)Man(a1-6)]Man(b1-4)GlcNAc(b1-4)GlcNAc", "summary_of_the_method": "as §1"}, "[9]": {"target": "Gal(b1-4)GlcNAc(b1-2)Man(a1-3)[GlcNAc(b1-4)][Gal(b1-4)GlcNAc(b1-2)Man(a1-6)]Man(b1-4)GlcNAc(b1-4)GlcNAc", "summary_of_the_method": "as §1"}, "[10]": {"target": "Gal(b1-4)GlcNAc(b1-2)Man(a1-3)[Man(a1-6)]Man(b1-4)GlcNAc(b1-4)GlcNAc", "summary_of_the_method": "as §1"}, "[11]": {"target": "Gal(b1-4)GlcNAc(b1-2)Man(a1-6)Man(b1-4)GlcNAc(b1-4)GlcNAc", "summary_of_the_method": "as §1"}, "[12]": {"target": "Gal(b1-4)GlcNAc(b1-2)Man(a1-6)[GlcNAc(b1-2)Man(a1-3)]Man(b1-4)GlcNAc(b1-4)GlcNAc", "summary_of_the_method": "as §1"}, "[13]": {"target": "Gal(b1-4)GlcNAc(b1-2)Man(a1-6)[Man(a1-3)]Man(b1-4)GlcNAc(b1-4)GlcNAc", "summary_of_the_method": "as §1"}, "[14]": {"target": "Gal(b1-4)GlcNAc(b1-2)[Gal(b1-4)GlcNAc(b1-4)]Man(a1-3)[Gal(b1-4)GlcNAc(b1-2)Man(a1-6)]Man(b1-4)GlcNAc(b1-4)GlcNAc", "summary_of_the_method": "as §1"}, "[15]": {"target": "Gal(b1-4)GlcNAc(b1-2)[Gal(b1-4)GlcNAc(b1-4)]Man(a1-3)[Gal(b1-4)GlcNAc(b1-2)[Gal(b1-4)GlcNAc(b1-6)]Man(a1-6)]Man(b1-4)GlcNAc(b1-4)GlcNAc", "summary_of_the_method": "as §1"}, "[16]": {"target": "Gal(b1-4)GlcNAc(b1-2)[Gal(b1-4)GlcNAc(b1-4)]Man(a1-3)[GlcNAc(b1-4)][Gal(b1-4)GlcNAc(b1-2)Man(a1-6)]Man(b1-4)GlcNAc(b1-4)GlcNAc", "summary_of_the_method": "as §1"}, "[17]": {"target": "Gal(b1-4)GlcNAc(b1-2)[Gal(b1-4)GlcNAc(b1-4)]Man(a1-3)[GlcNAc(b1-4)][Gal(b1-4)GlcNAc(b1-2)[Gal(b1-4)GlcNAc(b1-6)]Man(a1-6)]Man(b1-4)GlcNAc(b1-4)GlcNAc", "summary_of_the_method": "as §1"}, "[18]": {"target": "Gal(b1-4)GlcNAc(b1-2)[Gal(b1-4)GlcNAc(b1-6)]Man(a1-6)[Gal(b1-4)GlcNAc(b1-2)Man(a1-3)]Man(b1-4)GlcNAc(b1-4)GlcNAc", "summary_of_the_method": "as §1"}}, "note": "The list shows a part of the results."}
{"binder": "GNA (Galanthus nivalis), P30617 (protein) MAKASLLILAAIFLGVITPSCLSDNILYSGETLSTGEFLNYGSFVFIMQEDCNLVLYDVDKPIWATNTGGLSRSCFLSMQTDGNLVVYNPSNKPIWASNTGGQNGNYVCILQKDRNVVIYGTDRWATGTHTGLVGIPASPPSEKYPTAGKIKLVTAK", "values": [{"measurement": "glycan array binding signal (z-score)", "setting": "[1]", "result": -0.157}, {"measurement": "glycan array binding signal (z-score)", "setting": "Gal(b1-4)Glc", "result": -0.163}, {"measurement": "glycan array binding signal (z-score)", "setting": "Gal(b1-4)Glc6S", "result": -0.124}, {"measurement": "glycan array binding signal (z-score)", "setting": "Gal(b1-4)GlcNAc", "result": -0.172}, {"measurement": "glycan array binding signal (z-score)", "setting": "[2]", "result": -0.17}, {"measurement": "glycan array binding signal (z-score)", "setting": "Gal(b1-4)GlcNAc(b1-2)Man", "result": -0.167}, {"measurement": "glycan array binding signal (z-score)", "setting": "[3]", "result": 0.804}, {"measurement": "glycan array binding signal (z-score)", "setting": "[4]", "result": 0.28}, {"measurement": "glycan array binding signal (z-score)", "setting": "[5]", "result": -0.031}, {"measurement": "glycan array binding signal (z-score)", "setting": "[6]", "result": -0.178}, {"measurement": "glycan array binding signal (z-score)", "setting": "[7]", "result": -0.186}, {"measurement": "glycan array binding signal (z-score)", "setting": "[8]", "result": 0.488}, {"measurement": "glycan array binding signal (z-score)", "setting": "[9]", "result": -0.172}, {"measurement": "glycan array binding signal (z-score)", "setting": "[10]", "result": 1.7}, {"measurement": "glycan array binding signal (z-score)", "setting": "[11]", "result": -0.171}, {"measurement": "glycan array binding signal (z-score)", "setting": "[12]", "result": 0.345}, {"measurement": "glycan array binding signal (z-score)", "setting": "[13]", "result": 3.11}, {"measurement": "glycan array binding signal (z-score)", "setting": "[14]", "result": -0.05}, {"measurement": "glycan array binding signal (z-score)", "setting": "[15]", "result": 0.166}, {"measurement": "glycan array binding signal (z-score)", "setting": "[16]", "result": -0.167}, {"measurement": "glycan array binding signal (z-score)", "setting": "[17]", "result": -0.176}, {"measurement": "glycan array binding signal (z-score)", "setting": "[18]", "result": -0.183}]}
